Source: PubChem BioAssay AID504333 (National Center for Advancing Translational Sciences (NCATS), 2011)
The campaign covered roughly 360,000 compounds. About 16,000 (4.4%) were called active. Inconclusive means that the source gave no clear call. Such entries were picked first, then a sample of the others. The call rests on the fitted dose curve; in most records, active means well fitted inhibition curve with a large enough effect; inconclusive means small, poorly fitted or top-dose-only effect; inactive means no such curve, though single readings can be large or run the other way. Potencies beside an inconclusive call are fits to weak or partial responses and may not hold up.

biological target: Bromodomain adjacent to zinc finger domain protein 2B (Homo sapiens) (UniProt Q9UIF8); experiment: qHTS Assay for Inhibitors of BAZ2B; details: AlphaScreen BAZ2B-H3K14Ac peptide displacement; activity change, negative = inhibition: at 114 µM (top of the series); further: nearly all actives have a fitted effect of over 60% in size
Chain of UniProt Q9UIF8 (Q9UIF8 whole entry, looked up, the tested form may be a part): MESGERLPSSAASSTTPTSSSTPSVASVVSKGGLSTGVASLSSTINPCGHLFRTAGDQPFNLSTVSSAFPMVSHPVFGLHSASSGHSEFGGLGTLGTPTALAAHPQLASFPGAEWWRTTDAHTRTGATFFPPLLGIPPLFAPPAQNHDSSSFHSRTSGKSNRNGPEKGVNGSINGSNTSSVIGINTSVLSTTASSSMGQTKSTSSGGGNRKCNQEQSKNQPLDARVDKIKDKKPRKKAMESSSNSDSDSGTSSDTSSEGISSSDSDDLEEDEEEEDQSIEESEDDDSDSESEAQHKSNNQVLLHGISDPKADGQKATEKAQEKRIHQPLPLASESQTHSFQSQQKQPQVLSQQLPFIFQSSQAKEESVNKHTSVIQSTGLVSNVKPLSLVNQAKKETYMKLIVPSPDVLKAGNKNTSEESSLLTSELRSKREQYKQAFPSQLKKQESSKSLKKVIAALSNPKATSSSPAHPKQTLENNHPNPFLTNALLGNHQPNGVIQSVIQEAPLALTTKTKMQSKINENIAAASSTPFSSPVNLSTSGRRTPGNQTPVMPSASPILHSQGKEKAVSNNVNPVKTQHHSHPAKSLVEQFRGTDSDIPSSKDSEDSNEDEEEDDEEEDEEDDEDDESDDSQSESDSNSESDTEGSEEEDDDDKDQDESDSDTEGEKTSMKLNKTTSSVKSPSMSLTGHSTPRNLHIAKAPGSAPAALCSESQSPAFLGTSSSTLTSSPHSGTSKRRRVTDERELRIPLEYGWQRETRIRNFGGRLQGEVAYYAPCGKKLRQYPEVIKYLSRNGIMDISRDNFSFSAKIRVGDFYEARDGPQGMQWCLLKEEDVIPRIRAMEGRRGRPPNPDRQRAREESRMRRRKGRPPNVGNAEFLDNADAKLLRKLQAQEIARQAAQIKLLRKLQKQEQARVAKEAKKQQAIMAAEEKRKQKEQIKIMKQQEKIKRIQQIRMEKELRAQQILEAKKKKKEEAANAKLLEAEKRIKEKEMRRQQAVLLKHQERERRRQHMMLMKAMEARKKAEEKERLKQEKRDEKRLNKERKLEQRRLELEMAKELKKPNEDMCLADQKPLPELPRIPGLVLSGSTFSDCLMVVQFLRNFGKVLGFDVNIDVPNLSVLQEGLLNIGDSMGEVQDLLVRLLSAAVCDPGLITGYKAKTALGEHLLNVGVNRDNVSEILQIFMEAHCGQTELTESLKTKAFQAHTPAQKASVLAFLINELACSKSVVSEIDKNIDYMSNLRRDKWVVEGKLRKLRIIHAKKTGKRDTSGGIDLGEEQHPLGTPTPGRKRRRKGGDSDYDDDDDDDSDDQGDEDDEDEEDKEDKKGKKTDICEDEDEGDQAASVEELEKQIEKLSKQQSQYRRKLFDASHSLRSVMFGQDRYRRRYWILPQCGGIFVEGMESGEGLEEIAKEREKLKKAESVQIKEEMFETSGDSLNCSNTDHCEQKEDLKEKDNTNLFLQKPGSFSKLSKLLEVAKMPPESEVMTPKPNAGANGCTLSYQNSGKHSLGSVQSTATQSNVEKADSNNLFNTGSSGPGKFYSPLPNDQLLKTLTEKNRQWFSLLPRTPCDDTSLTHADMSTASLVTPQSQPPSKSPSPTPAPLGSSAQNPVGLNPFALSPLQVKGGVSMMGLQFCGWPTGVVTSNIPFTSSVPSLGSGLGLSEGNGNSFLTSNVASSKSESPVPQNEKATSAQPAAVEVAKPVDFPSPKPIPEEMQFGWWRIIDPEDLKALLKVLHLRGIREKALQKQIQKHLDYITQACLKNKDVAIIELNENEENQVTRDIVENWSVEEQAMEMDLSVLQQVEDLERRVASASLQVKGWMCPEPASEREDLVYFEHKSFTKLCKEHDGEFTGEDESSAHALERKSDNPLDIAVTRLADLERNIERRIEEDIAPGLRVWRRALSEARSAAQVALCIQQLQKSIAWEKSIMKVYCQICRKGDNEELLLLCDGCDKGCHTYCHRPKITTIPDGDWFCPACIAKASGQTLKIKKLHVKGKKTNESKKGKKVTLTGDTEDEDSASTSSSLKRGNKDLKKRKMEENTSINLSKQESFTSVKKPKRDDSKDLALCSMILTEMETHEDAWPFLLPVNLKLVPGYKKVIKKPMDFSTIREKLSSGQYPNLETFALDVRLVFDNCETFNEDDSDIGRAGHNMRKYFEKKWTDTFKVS
Summary of the method: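 Inhibition is scored as reduced AlphaScreen emission. The BAZ2B/b-H3(5-23)K14Ac complex (50 nM each) in PBS pH 7.4, 0.01% Tween-20 meets compound (up to 110 uM) for 30 min at RT before bead addition.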
On the % scale 0 is the no-effect control and ±100 the full control effect; potency means the concentration at half of the fitted maximal effect; tags describe the fitted curve by direction and shape.

SMILES	Potency	activity change, negative = inhibition
CC1(C)N(O)CC(c2cccs2)=[N+]1[O-]	active: 50.1 µM	–
CCCCOC(=O)CSC1=C(C#N)C(c2ccccc2OCC)C(C#N)C(=O)N1 (stereo not drawn)	active: 50.1 µM	–
COc1ccc2cc[nH]c2c1	inconclusive: 79.4 µM [inhibitor, single point]	–
COc1ccc(OC)c(NC(=O)CN(c2ccc(C)cc2)S(=O)(=O)c2c(C)n[nH]c2C)c1	inconclusive: 56.2 µM [inhibitor, partial curve]	–
Cc1ccc([N+](=O)[O-])cc1NC(=S)NC(=O)c1c(Cl)cnn1C	–	inactive: -7.04%
Cc1nc2c(-c3ccccc3)c(C)nn2c(C)c1CCC(=O)NCCc1ccccc1	–	inactive: 3.94%
COc1ccc(/C=N/N=C2/NC(=O)C(CC(=O)NC(N)=O)S2)cc1 (stereo not drawn)	–	inactive: -13.1%
O=C(C1=C[C@H](c2csc3ccccc23)C[C@H](OCCCCO)O1)N1CCN(Cc2ccccc2)CC1	active: 50.1 µM	–
CC(=O)CCc1oc2ccc([N+](=O)[O-])cc2c1-c1ccc(C)o1	inconclusive: 44.7 µM [inhibitor, partial curve]	–
O=C(C1=C(O)C(=O)N(CC2CCCO2)C1c1ccccc1[N+](=O)[O-])c1ccco1 (stereo not drawn)	–	inactive: -2.84%
COC(=O)c1cc2c(ccn2-c2ccc(F)cc2)n1C(C)C	inconclusive: 35.5 µM [inhibitor, partial curve]	–
CN(C)C1(CNCC(O)c2ccccc2)CCCCC1 (stereo not drawn)	active: 70.8 µM	–
O=C(NCc1ccccc1Cl)C1CCCN(C(=O)c2cnn(-c3ccc(F)cc3)c2-n2cccc2)C1 (stereo not drawn)	inconclusive: 89.1 µM [inhibitor, single point]	–
COc1cccc(/C=N/n2c(SC)nnc2-c2ccccc2)c1O	inconclusive: 89.1 µM [inhibitor, single point]	–
COCCn1c(SCC(=O)Nc2ncc(Cl)c(C)c2Cl)nc2ccccc21	inconclusive: 89.1 µM [inhibitor, single point]	–
c1ccc(CC2CCN(Cc3ccccn3)CC2)cc1	active: 50.1 µM	–
O=C(Nc1ccc(Cl)cc1C(=O)O)c1ccc2c(c1)C(=O)N(Cc1ccco1)C2=O	active: 50.1 µM	–
CSc1ccc(/C=N/N2CCN(Cc3ccc(C)cc3C)CC2)cc1	active: 44.7 µM	–
CCCN(CC1CC1)C(=O)CSc1ncnc2sccc12	–	inactive: 1.79%
CC(=O)Nc1ccc(NC(=O)c2nccnc2C(=O)O)cn1	active: 50.1 µM	–
O=C(OCc1nnc(-c2ccccc2)o1)c1cc(Cl)ccc1[N+](=O)[O-]	inconclusive: 39.8 µM [inhibitor, partial curve]	–
COc1ccccc1CNC(=O)CCCCn1c(=O)c2ccccc2n(Cc2ccccc2C)c1=O	inconclusive: 89.1 µM [inhibitor, single point]	–
O=C(NCCn1cc(SCc2ccccc2)c2ccccc21)c1cccs1	inconclusive: 89.1 µM [inhibitor, single point]	–
COC(=O)c1c(C)[nH]c(C)c1-c1ccc(C)cc1	inconclusive: 89.1 µM [inhibitor, single point]	–
COc1ccc(Cl)cc1N=C1NC(=O)CC(C(=O)Nc2ccccc2C(F)(F)F)S1 (stereo not drawn)	–	inactive: -27%

SMILES	Potency	activity change, negative = inhibition
Cc1occc1-c1nnc(SCC(=O)Nc2ccccc2)n1C(C)c1ccccc1 (stereo not drawn)	inconclusive: 89.1 µM [inhibitor, single point]	–
CCCCN(CC)C(=O)Cn1c(=O)sc2ccccc21	–	inactive: 5.87%
CCn1c(C(=O)N2CCC(C(=O)N3CCN(c4ccc(OC)cc4)CC3)CC2)cc2sccc21	inconclusive: 44.7 µM [inhibitor, partial curve]	–
CCCCc1nnc(NC(=O)CC(=O)Nc2ccccc2C(=O)O)s1	–	inactive: 6.76%
CS(=O)(=O)C1=NSC2=NC(=O)/C(=C\c3cccn3-c3ccccc3Cl)C(=N)N21	active: 50.1 µM	–
COc1ccccc1NC(=O)CCSCCC(=O)Nc1ccccc1OC	inconclusive: 89.1 µM [inhibitor, single point]	–
CCc1ccccc1N1CC(c2nc3ccccc3n2CCOc2ccc(Cl)c(C)c2)CC1=O (stereo not drawn)	–	inactive: 8.01%
O=C(CN1CCN(S(=O)(=O)c2ccccc2)CC1)Nc1ccc(Cl)cn1	inconclusive: 39.8 µM [inhibitor, single point]	–
CCOC(=O)c1c(C)n(C)c2ccc(OC)c(NC(=O)CN3CCSCC3)c12	–	inactive: 6.23%
CN(C)c1ccc(C(=O)Nc2c(C(=O)NC(C)(C)C)oc3ccccc23)cc1	–	inactive: -12.2% [at 57.1 µM]
c1ccc2cc(-c3cc4ccccn4c3)ccc2c1	inconclusive: 89.1 µM [inhibitor, single point]	–
CCOC(=O)N1CCN(S(=O)(=O)N2CCCC(C(=O)NCc3ccc(OC)cc3)C2)CC1 (stereo not drawn)	–	inactive: -3.8% [at 57.1 µM]
Nc1cc(-c2ccc(OC(F)(F)F)cc2)nn1-c1ccc(Cl)c(Cl)c1	inconclusive: 31.6 µM [inhibitor, partial curve]	–
O=C(c1cccn1-c1nnc(N2CCCCC2)s1)N1CCN(c2ccc(Cl)cc2)CC1	–	inactive: -29.3%
O=C(Nc1ccc(C(=O)O)cc1)Nc1ccc([N+](=O)[O-])cc1	–	inactive: 4.86%
CNC(=O)c1cc(C(=O)c2ccccc2C(F)(F)F)c[nH]1	inconclusive: 79.4 µM [inhibitor, partial curve]	–
COc1ccccc1CNc1ccc(CNc2ncn[nH]2)cc1	inconclusive: 44.7 µM [inhibitor, partial curve]	–
Cc1cc(NC(=O)c2cccs2)n(-c2nc3ccccc3[nH]2)n1	inconclusive: 89.1 µM [inhibitor, single point]	–
COc1cc(NS(=O)(=O)c2ccc(Nc3nc(-c4ccccn4)cs3)cc2)nc(OC)n1	inconclusive: 89.1 µM [inhibitor, single point]	–
O=C(CCc1ccccc1)NNC(=O)c1ccc(Cl)cc1	–	inactive: 8.09%
CC[n+]1c(/C=C2\C=C(C)CC(C)C2)sc2ccccc21 (stereo not drawn)	inconclusive: 56.2 µM [inhibitor, partial curve]	–
O=c1c2c(-c3cccc([N+](=O)[O-])c3)ccnc2[nH]n1-c1ccccc1	–	inactive: -18.8%
CNc1ccc(/C=C/C(=O)c2cccc3ccccc23)cc1[N+](=O)[O-]	active: 7.08 µM	–
COc1ccc(NC(=O)NC2CCCc3ccccc32)cc1OC (stereo not drawn)	–	inactive: -24.4%
S=c1[nH]nc(C2CCCCC2)n1/N=C/c1cccc(Br)c1	–	inactive: 3.07%

SMILES	Potency	activity change, negative = inhibition
CN1C(=O)C(CC(=O)Nc2ccc(Cl)cc2)N(Cc2ccco2)C1=S (stereo not drawn)	inconclusive: 28.2 µM [inhibitor, partial curve]	–
Cc1ccc(C23CC4CC(CC(NC(=O)NCCN(C)C)(C4)C2)C3)cc1	–	inactive: 2.15%
Cc1cccc(-c2nc(CS(=O)CC(=O)NCCc3ccccc3)c(C)o2)c1 (stereo not drawn)	inconclusive: 79.4 µM [inhibitor, partial curve]	–
Cc1ccc(NC(=O)CSc2nncn3c2cc2sccc23)cc1F	inconclusive: 79.4 µM [inhibitor, single point]	–
O=C(N/N=C\c1cc(Br)c(Br)o1)C1COc2ccccc2O1 (stereo not drawn)	inconclusive: 50.1 µM [inhibitor, partial curve]	–
C#CCOCCOCCOCCNc1nc(N2CCN(C(=O)[C@H](C(C)C)n3cc(CCO)nn3)CC2)nc(N2CCN(C(=O)[C@H](C(C)C)n3cc(CCO)nn3)CC2)n1	inconclusive: 89.1 µM [inhibitor, single point]	–
CC(=O)Nc1ccc(NC(=O)CSc2nnc(NC(=O)c3ccc(Br)o3)s2)cc1	inconclusive: 50.1 µM [inhibitor, partial curve]	–
CC(C)CCn1c(Oc2ccc(Cl)cc2)nc2c1c(=O)n(C)c(=O)n2C	inconclusive: 44.7 µM [inhibitor, partial curve]	–
Cc1cccc(C)c1NC(=O)CN(C)C(=O)c1cccc(-n2cccc2)c1	active: 50.1 µM	–
CC1CCN(S(=O)(=O)c2ccc(N/N=C(/C#N)C(N)=O)cc2)CC1	–	inactive: -29.7%
N#Cc1nc(-c2ccco2)oc1NCCc1ccccc1	inconclusive: 50.1 µM [inhibitor, partial curve]	–
COc1ccc(-c2cc(-c3cc(OC)ccc3O)[nH]n2)cc1	inconclusive: 89.1 µM [inhibitor, single point]	–
COC(=O)NNC(=S)Nc1cc(OC)ccc1OC	inconclusive: 79.4 µM [inhibitor, single point]	–
Fc1ccccc1C1c2cccn2CCN1C(=S)Nc1cccc(Br)c1 (stereo not drawn)	inconclusive: 44.7 µM [inhibitor, partial curve]	–
COc1cccc(CNCc2ccc(OC)c3ccccc23)c1OC	active: 20 µM	–
NC(=O)C1CCN(C2=C(Cl)C(=O)c3ccccc3C2=O)CC1	active: 25.1 µM	–
O=C(Nc1ccc(Cl)c(-c2nc3ccccc3o2)c1)c1cccc2c(Cl)cccc12	–	inactive: -13.4%
COc1ccc([N+](=O)[O-])c(OC)c1C(=O)Nc1ccc(F)cc1F	–	inactive: -0.611%
COc1ccc(Nc2ccc3cc(S(=O)(=O)N4CCCC4)ccc3n2)cc1OC	inconclusive: 39.8 µM [inhibitor, full curve]	–
Cc1ccc(Nc2nc(-c3c(C)n(C)n(-c4ccccc4)c3=O)c(C)s2)cc1	inconclusive: 79.4 µM [inhibitor, single point]	–
Brc1ccc(C2C3=C(Nc4ncnn42)c2ccccc2OC3c2ccncc2)cc1 (stereo not drawn)	inconclusive: 89.1 µM [inhibitor, single point]	–
C=CCN1C(=O)[C@@H]2Cc3c([nH]c4ccccc34)C(c3ccc(O)cc3)N2C1=S (stereo partly drawn)	inconclusive: 44.7 µM [inhibitor, partial curve]	–
O=S(=O)(c1ccccc1)c1nc(-c2ccco2)oc1NCCCn1ccnc1	inconclusive: 79.4 µM [inhibitor, single point]	–
